# Reference: the supplement of paper PMC8728848
# The other results are listed elsewhere or left out.
# Columns and labels:
# Test in all cases: glycan array binding signal (z-score within array); higher = stronger binding
# Conditions in all cases: glycan notation: IUPAC condensed, linker removed
# [1] = biological target: Gal(a1-4)Gal(b1-4)GlcNAc(b1-2)Man(a1-3)[Gal(a1-4)Gal(b1-4)GlcNAc(b1-2)Man(a1-6)]Man(b1-4)GlcNAc(b1-4)GlcNAc
# Outline: (§1)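 The binding signal is a Z-score computed within each array and averaged over linkers. Arrays of the same protein sequence at different concentrations or buffers were also averaged together. Data originate from 3228 arrays in the Consortium for Functional Glycomics database, kept only where the protein sequence was available.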
# [2] = biological target: Gal(a1-4)Gal(b1-4)GlcNAc(b1-3)Gal(b1-4)Glc
# Outline: as §1
# [3] = biological target: Gal(a1-4)GlcNAc
# Outline: as §1
# [4] = biological target: Gal(a1-6)Glc
# Outline: as §1
# [5] = biological target: Gal(b1-2)Gal
# Outline: as §1
# [6] = biological target: Gal(b1-3)Gal
# Outline: as §1
# [7] = biological target: Gal(b1-3)Gal(b1-4)GlcNAc
# Outline: as §1
# [8] = biological target: Gal(b1-3)Gal(b1-4)GlcNAc(b1-2)Man(a1-3)[Gal(b1-3)Gal(b1-4)GlcNAc(b1-2)Man(a1-6)]Man(b1-4)GlcNAc(b1-4)GlcNAc
# Outline: as §1
# [9] = biological target: Gal(b1-3)GalNAc
# Outline: as §1
# [10] = biological target: Gal(b1-3)GalNAc(a1-3)[Fuc(a1-2)]Gal(b1-4)Glc
# Outline: as §1
# [11] = biological target: Gal(b1-3)GalNAc(a1-3)[Fuc(a1-2)]Gal(b1-4)GlcNAc
# Outline: as §1
# [12] = biological target: Gal(b1-3)GalNAc(b1-3)Gal(a1-4)Gal(b1-4)Glc
# Outline: as §1
# [13] = biological target: Gal(b1-3)GalNAc(b1-4)Gal(b1-4)Glc
# Outline: as §1
# [14] = biological target: Gal(b1-3)GalNAc(b1-4)[Neu5Ac(a2-3)]Gal(b1-4)Glc
# Outline: as §1
# [15] = biological target: Gal(b1-3)GlcNAc
# Outline: as §1
# [16] = biological target: Gal(b1-3)GlcNAc(a1-6)Gal(b1-4)GlcNAc
# Outline: as §1
# [17] = biological target: Gal(b1-3)GlcNAc(b1-2)Man(a1-3)[Gal(b1-3)GlcNAc(b1-2)Man(a1-6)]Man(b1-4)GlcNAc(b1-4)GlcNAc
# Outline: as §1
# [18] = biological target: Gal(b1-3)GlcNAc(b1-2)Man(a1-3)[Gal(b1-3)GlcNAc(b1-2)Man(a1-6)]Man(b1-4)GlcNAc(b1-4)[Fuc(a1-6)]GlcNAc
# Outline: as §1
# [19] = biological target: Gal(b1-3)GlcNAc(b1-2)[Gal(b1-3)GlcNAc(b1-6)]Man(a1-6)[Gal(b1-3)GlcNAc(b1-2)Man(a1-3)]Man(b1-4)GlcNAc(b1-4)GlcNAc
# Outline: as §1
# [20] = biological target: Gal(b1-3)GlcNAc(b1-3)Gal(b1-3)GlcNAc
# Outline: as §1
# [21] = biological target: Gal(b1-3)GlcNAc(b1-3)Gal(b1-4)Glc
# Outline: as §1
# [22] = biological target: Gal(b1-3)GlcNAc(b1-3)Gal(b1-4)GlcNAc
# Outline: as §1
# [23] = biological target: Gal(b1-3)GlcNAc(b1-3)Gal(b1-4)GlcNAc(b1-6)[Gal(b1-3)GlcNAc(b1-3)]Gal(b1-4)Glc
# Outline: as §1
# [24] = biological target: Gal(b1-3)GlcNAc(b1-3)Gal(b1-4)[Fuc(a1-3)]GlcNAc(b1-6)[Gal(b1-3)GlcNAc(b1-3)]Gal(b1-4)Glc
# Outline: as §1
# [25] = biological target: Gal(b1-3)GlcNAc(b1-3)GalNAc
# Outline: as §1
# [26] = biological target: Gal(b1-3)GlcNAc(b1-6)Gal(b1-4)GlcNAc
# Outline: as §1
# [27] = biological target: Gal(b1-3)[Fuc(a1-4)]GlcNAc
# Outline: as §1
# [28] = biological target: Gal(b1-3)[Fuc(a1-4)]GlcNAc(b1-2)Man(a1-3)[Gal(b1-3)[Fuc(a1-4)]GlcNAc(b1-2)Man(a1-6)]Man(b1-4)GlcNAc(b1-4)GlcNAc
# Outline: as §1
# [29] = biological target: Gal(b1-3)[Fuc(a1-4)]GlcNAc(b1-2)Man(a1-3)[Gal(b1-3)[Fuc(a1-4)]GlcNAc(b1-2)Man(a1-6)]Man(b1-4)GlcNAc(b1-4)[Fuc(a1-6)]GlcNAc
# Outline: as §1
# [30] = biological target: Gal(b1-3)[Fuc(a1-4)]GlcNAc(b1-3)Gal(b1-3)[Fuc(a1-4)]GlcNAc
# Outline: as §1
# [31] = biological target: Gal(b1-3)[Fuc(a1-4)]GlcNAc(b1-3)Gal(b1-4)GlcNAc
# Outline: as §1
# [32] = biological target: Gal(b1-3)[Fuc(a1-4)]GlcNAc(b1-3)Gal(b1-4)[Fuc(a1-3)]GlcNAc
# Outline: as §1
# [33] = biological target: Gal(b1-3)[GlcNAc(b1-6)]GalNAc
# Outline: as §1
# [34] = biological target: Gal(b1-3)[Neu5Ac(a2-6)]GalNAc
# Outline: as §1
# [35] = biological target: Gal(b1-3)[Neu5Ac(a2-6)]GlcNAc(b1-6)Gal(b1-4)Glc
# Outline: as §1
# [36] = biological target: Gal(b1-3)[Neu5Ac(b2-6)]GalNAc
# Outline: as §1
# [37] = biological target: Gal(b1-4)Gal
# Outline: as §1
# [38] = biological target: Gal(b1-4)GalNAc(a1-3)[Fuc(a1-2)]Gal(b1-4)GlcNAc
# Outline: as §1
# [39] = biological target: Gal(b1-4)GalNAc(b1-3)[Fuc(a1-2)]Gal(b1-4)GlcNAc
# Outline: as §1
# [40] = biological target: Gal(b1-4)Glc
# Outline: as §1
# [41] = biological target: Gal(b1-4)Glc6S
# Outline: as §1
# [42] = biological target: Gal(b1-4)GlcNAc
# Outline: as §1
# [43] = biological target: Gal(b1-4)GlcNAc(a1-6)Gal(b1-4)GlcNAc
# Outline: as §1
# [44] = biological target: Gal(b1-4)GlcNAc(b1-2)Man
# Outline: as §1
# [45] = biological target: Gal(b1-4)GlcNAc(b1-2)Man(a1-3)Man(b1-4)GlcNAc(b1-4)GlcNAc
# Outline: as §1
binder,measurement,setting,value
XCL (Xerocomus chrysenteron) (protein) MSYSITLRVYQTNRDRGYFSIVEKTVWHFANGGTWSEANGAHTLTQGGSGTSGVLRFLSTKGERITVAVGVHNYKRWCDVVTGLKPDETALVINPQYYNNGGRDYVREKQLAEYSVTSAIGTKVEVVYTVAEGNNLEANVIFS,glycan array binding signal (z-score),[1],-0.32
same,glycan array binding signal (z-score),[2],-0.32
same,glycan array binding signal (z-score),[3],-0.287
same,glycan array binding signal (z-score),[4],-0.302
same,glycan array binding signal (z-score),[5],-0.289
same,glycan array binding signal (z-score),[6],-0.301
same,glycan array binding signal (z-score),[7],-0.298
same,glycan array binding signal (z-score),[8],-0.319
same,glycan array binding signal (z-score),[9],1.2
same,glycan array binding signal (z-score),[10],1.42
same,glycan array binding signal (z-score),[11],3.43
same,glycan array binding signal (z-score),[12],-0.328
same,glycan array binding signal (z-score),[13],-0.32
same,glycan array binding signal (z-score),[14],-0.321
same,glycan array binding signal (z-score),[15],-0.297
same,glycan array binding signal (z-score),[16],-0.315
same,glycan array binding signal (z-score),[17],-0.294
same,glycan array binding signal (z-score),[18],-0.281
same,glycan array binding signal (z-score),[19],-0.292
same,glycan array binding signal (z-score),[20],-0.323
same,glycan array binding signal (z-score),[21],-0.31
same,glycan array binding signal (z-score),[22],-0.316
same,glycan array binding signal (z-score),[23],-0.316
same,glycan array binding signal (z-score),[24],-0.31
same,glycan array binding signal (z-score),[25],-0.286
same,glycan array binding signal (z-score),[26],-0.324
same,glycan array binding signal (z-score),[27],-0.267
same,glycan array binding signal (z-score),[28],-0.323
same,glycan array binding signal (z-score),[29],-0.183
same,glycan array binding signal (z-score),[30],-0.261
same,glycan array binding signal (z-score),[31],-0.311
same,glycan array binding signal (z-score),[32],-0.304
same,glycan array binding signal (z-score),[33],1.25
same,glycan array binding signal (z-score),[34],2.19
same,glycan array binding signal (z-score),[35],-0.3
same,glycan array binding signal (z-score),[36],0.607
same,glycan array binding signal (z-score),[37],-0.322
same,glycan array binding signal (z-score),[38],-0.307
same,glycan array binding signal (z-score),[39],-0.307
same,glycan array binding signal (z-score),[40],-0.32
same,glycan array binding signal (z-score),[41],-0.322
same,glycan array binding signal (z-score),[42],-0.322
same,glycan array binding signal (z-score),[43],-0.322
same,glycan array binding signal (z-score),[44],-0.321
same,glycan array binding signal (z-score),[45],-0.259
